± gives the standard deviation of the averaged measurements. The list shows a part of the results.
test system: PfAP2-G AP2 domain (GST-tagged); assay: gcPBM binding intensity (ln(normalized median fluorescence intensity)); higher = stronger DNA binding
Outline: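 After 1 h on an Agilent 4 × 180k array of primer-extended double-stranded 36-bp intergenic genomic probes and negative controls, bound GST-tagged P. falciparum DNA-binding domains were detected with Alexa488 anti-GST antibody and scanned at 488 nm. The domains had been expressed in E. coli, and binding took place in 1× PBS with 1% milk, 0.2 mg/ml BSA, 0.5% salmon testes DNA and 0.03% Triton X-100. Binding intensity is the highest Masliner-normalised natural-log median intensity across replicate spots of either probe orientation.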

Row | Sequence | gcPBM binding intensity (ln)
1 | ATAGAATCTGGTAGCTGTACGAGTCGTAGAGTGTAG [XGTACX_site2016] | 11.4 ± 0.98
2 | ATATATTAAAAGGATTAGGAAAAAATATGATTTATC [TGCATGCA_negctrl_site405] | 9.57 ± 0.34
3 | AAGTAAAAAAAAAAAAGTACATGTTTATATAAATAT [XGTACX_site4741] | 11.4 ± 0.73
4 | ATCCCCATAAAAAATACACACAAATATTTATACATA [CACACA_site1001] | 9.96 ± 0.11
5 | ATTACGATAGAGAAATGTACATATATATATGTAAGT [XGTACX_site1200] | 10.9 ± 0.36
6 | TATTTTATAAATTAATGTACATAAATTATATCTACT [XGTACX_site3625] | 11.2 ± 0.69
7 | TCATAAATACATTTTGCATGTAAAATATAGAATACA [TGCATGCA_site755] | 9.75 ± 0.071
8 | TCTATAAAATATAAAAGTACGTATCAATAATTAAAA [XGTACX_site8469] | 11.2 ± 0.49
9 | GATCAAAATTATAGAAGTACTTTATATAAATAAAAT [XGTACX_site8161] | 11.2 ± 0.82
10 | TATATATATAAGATTGTGCACATTAAAATGATAGAA [GTGCAC_site9621] | 10.4 ± 0.29
11 | AATAATGTTTTTATATCACACACAAATATTAAATGA [CACACA_site8074] | 9.995 ± 0.064
12 | CAAAATAAATAATTTGGTACACATAAAAAAAAAAAA [XGTACX_site8380] | 11.1 ± 0.8
13 | TGATAAGAAAAAGACTTTTCCTTCTTACTTTCTATG [CACACA_negctrl_site782] | 9.64 ± 0.27
14 | CCATAAAACTATAATACACACATATAGATTAACATA [CACACA_site7849] | 10 ± 0.13
15 | AAAATTGGTGAAAATGAAAATATGATTATATGTATA [XGTACX_negctrl_site505] | 9.61 ± 0.33
16 | CCATAAAAAGGTACATGTACAAAAAGCAAAAATATG [XGTACX_site5543] | 11.6 ± 0.91
17 | ATATTTTTCCAACATCGTACATTATGAGTCAAAATT [XGTACX_site993] | 10.9 ± 0.4
18 | TTTATATATAATGTTGCATGTCAAATTTGTATATGG [TGCATGCA_site246] | 10.1 ± 0.24
19 | TGTTCTTATACTAATAGTACTTTTAGGTACTATAAA [XGTACX_site2954] | 11.2 ± 0.83
20 | TGTAGACATTAATGTAGTACAATATATATATATATT [XGTACX_site8608] | 11.5 ± 1.1
21 | AATTTAATTTTTTCGTGTACTTATATAGGAGGTTTT [XGTACX_site8310] | 11.4 ± 0.95
22 | CAATTAAAGATATGAACACACATGTGAACTTTCTAT [CACACA_site7796] | 10.04 ± 0.035
23 | TTTCTTATCAACCTTTTTTTTTTTTTTTTATTCTTA [TGCATGCA_negctrl_site162] | 9.69 ± 0.028
24 | CCCATATTATAGGTGTGTACATAAAAGTATATATAA [XGTACX_site3629] | 11.6 ± 0.95
